From PubChem BioAssay AID1347073 (National Center for Advancing Translational Sciences (NCATS), 2019)
Hit rate of the full screen: of about 45,000 compounds, about 200 (0.44%) were called active. Inconclusive results (about 7%) are left out. Calls come from the whole dose curve; as a rule, active = well fitted activation curve with a large enough effect; inconclusive = small, poorly fitted or top-dose-only effect; inactive = no such curve, though single readings can be large or run the other way. The list shows a part of the results.

Experiment: qHTS of TDP-43 Inhibitors: NCGC Sytravon Library Screen; note: nearly all actives have a fitted effect of over 55% in size; for growth rescue (activation): 0% is about no effect
Conditions: yeast TDP-43 toxicity rescue, BacTiter-Glo growth, 24 h; series mostly up to 46.1 µM; growth rescue (activation): at the top concentration
Outline: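 TDP-43-expressing yeast, pregrown in raffinose, seeded at OD600 0.02 in galactose medium with compound for 24 hr at 30 deg C. Growth read by BacTiter-Glo luminescence, so rescue of toxicity appears as activation.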
Potency is the fitted concentration of half-maximal effect.

| Structure (SMILES) | growth rescue (activation) | Potency |
| --- | --- | --- |
| O=C(CSc1nncc2ccccc12)N1CCCCC1 | inactive: 4.06% | – |
| CC1Cc2ccccc2N1C(=O)CN1CCc2ccccc2C1 (stereo not drawn) | inactive: -10.8% | – |
| O=C(N/N=C/c1ccc(N2CCOCC2)cc1)C1CC1 | inactive: 8.16% | – |
| N#Cc1c(NC(=O)CSc2nc(-c3ccccc3)cc(C(F)(F)F)n2)sc2c1CCC2 | inactive: 7.02% | – |
| NS(=O)(=O)c1ccccc1 | inactive: -3.15% | – |
| Cc1cccn2c(CN3CCCC(c4ccccc4)C3)c(C(=O)N3CCOCC3)nc12 (stereo not drawn) | inactive: 4.26% | – |
| CCN(CC)C(=O)c1csc(COCCO)n1 | inactive: 1.02% | – |
| COc1ccc(NC(=S)N2CCC(NC(=O)c3ccc(OC)cc3)CC2)cc1 | inactive: 0.434% | – |
| Cc1ccc(-c2nnc3c4ccccc4c(C)nn23)cc1NC(=O)c1cccc(Br)c1 | inactive: 1.39% | – |
| c1ccc(-c2cc3c(N4CCCCC4)ncnc3s2)cc1 | inactive: 27.8% | – |
| Cc1ccc(C(=O)N/C(=C/c2ccco2)C(=O)N2CCCCCC2)cc1 | inactive: -0.377% | – |
| COc1ccc(-c2nc(CS(=O)(=O)CC(=O)NCc3ccccc3Br)c(C)o2)cc1 | inactive: 4.02% | – |
| O=C(COC(=O)CCc1ccccc1)NNC(=O)c1ccccc1 | inactive: -4% | – |
| CCOc1ccc(NC(=S)N/N=C(\C)Cc2ccc(OC)cc2)cc1 | inactive: 13.2% | – |
| CCOC(=O)Cc1c(Sc2ccccc2)c2cc(C)ccc2n1C | inactive: 19.2% | – |
| CC(OC(=O)c1oc2ccccc2c1COc1ccccc1)C(=O)NC(N)=O (stereo not drawn) | inactive: -1.44% | – |
| COc1ccc(C(=O)C2CCN(CC(=O)Nc3ccc(C)cc3)CC2)cc1 | inactive: -21.2% | – |
| COc1ccc(OC)c(C2NC(=S)NC(C)=C2C(=O)Nc2ccccn2)c1 (stereo not drawn) | inactive: 6.56% | – |
| COCCCNC(=S)NCCCNc1nc2cc(C)cc(C)c2cc1C#N | inactive: 23.2% | – |
| CCN(Cc1ccccc1)CC(O)COC(c1ccc(OC)cc1)c1ccc(OC)cc1 (stereo not drawn) | inactive: 4.68% | – |
| COC(=O)C1CC(O)CN1C(=O)Nc1cccc(C(F)(F)F)c1 (stereo not drawn) | inactive: -0.695% | – |
| O=C1CCC(C(=O)N(CCO)Cc2ccccc2)CN1CC1CCCCC1 (stereo not drawn) | inactive: -12% | – |

| Structure (SMILES) | growth rescue (activation) | Potency |
| --- | --- | --- |
| O=C(CNC(=O)c1cccc(OC(F)F)c1)OCC(=O)c1ccccc1 | inactive: 9.93% | – |
| O=C(Nc1ccc2oc(=O)ccc2c1)c1ccc(-c2ccc(Cl)cc2)o1 | inactive: 4.71% | – |
| O=C(CSc1nnc(NC(=O)c2cccc(F)c2)s1)NC1CC1 | inactive: 0.819% | – |
| Cc1ccccc1NCCC(=O)Nc1ccc(F)cc1 | inactive: -0.2% | – |
| Cc1ccc([N+](=O)[O-])cc1NC(=O)C(C)N1CCCCC1 (stereo not drawn) | inactive: 14% | – |
| O=C(c1cc2ccccc2oc1=O)N1CCOCC1 | inactive: 13.6% | – |
| Cc1cc(C(C)(C)C)ccc1OCC(=O)N/N=C\c1c(C)n(C)n(-c2ccccc2)c1=O | inactive: 11.8% | – |
| Cc1cc(C)c2cc(CN(CCCO)S(=O)(=O)c3ccccc3F)c(=O)[nH]c2c1 | inactive: 0.464% | – |
| CCCCCCCCCCCCCCCC[n+]1cccc(C(=O)N(CC)CC)c1 | inactive: -94.4% | – |
| CCOC(=O)/C(=C/c1ccc(Cl)cc1)NC(=O)c1ccco1 | inactive: 0.387% | – |
| Cc1ccc(C(C)C)c(OCC(O)CN2CCN(c3ccccc3F)CC2)c1 (stereo not drawn) | inactive: 13% | – |
| O=C1CCCC2=C1C(c1cccc(O)c1)c1c(ccc3ncccc13)N2 (stereo not drawn) | inactive: -5.36% | – |
| COc1ccc(N=C2SC(CC(=O)Nc3ccccc3)C(=O)N2Cc2ccccn2)cc1 (stereo not drawn) | inactive: 7.35% | – |
| Cc1cc(NC(=O)c2ccc(COc3ccccc3Cl)o2)no1 | inactive: 8.79% | – |
| COc1ccc(/C=C2/Sc3ccc(C(=O)N4CCc5ccccc5C4)cc3NC2=O)cc1 | inactive: 22.3% | – |
| c1cnc2c(-c3ccc4nccn4c3)cccc2c1 | inactive: 8.15% | – |
| COc1ccc(C(=O)CSc2nnc(CNC(=O)c3ccccc3F)n2C)cc1OC | inactive: -5.91% | – |
| Cc1ccc(C)c(NC(=O)C(Sc2nnc(-c3cccs3)o2)c2ccccc2)c1 (stereo not drawn) | inactive: 2.79% | – |
| Cc1ccc(-c2noc(-c3ccccc3C(=O)NCc3ccco3)n2)cc1 | inactive: 27.5% | – |
| COc1ccc(NC(=O)Cc2cccc(F)c2)cc1S(=O)(=O)Nc1ccccc1Cl | inactive: 35.5% | – |
| Cc1nc2nc(-c3ccc(Cl)cc3)[nH]n2c(=O)c1Cc1ccccc1 | inactive: 6.36% | – |
| CCc1ccc(CNc2ccc3c(c2)ncn3C(C)(C)C)cc1 | inactive: 8.36% | – |

| Structure (SMILES) | growth rescue (activation) | Potency |
| --- | --- | --- |
| CC(=O)NC(C)(c1ccccc1)c1nc(-c2ccc(N(C)C)cc2)cs1 (stereo not drawn) | inactive: 13.8% | – |
| O=c1cc(-c2cccc3ccccc23)[nH][nH]1 | inactive: 19.7% | – |
| CN(Cc1ccccc1)C(=O)COC(=O)c1cc(NS(=O)(=O)c2cccs2)ccc1O | inactive: 8.19% | – |
| CCCCCC(=C/c1ccccc1)/C=N/Nc1ccc(S(=O)(=O)N2CCOCC2)cc1[N+](=O)[O-] | inactive: 3.47% | – |
| Cc1ccc2nc(SC(C)C(=O)NC3CCCC3)[nH]c2c1 (stereo not drawn) | inactive: 5.16% | – |
| Cc1cc(C(=O)OCC(=O)c2ccc(Cl)c([N+](=O)[O-])c2)c2cccc(C)c2n1 | inactive: 24% | – |
| CC(C)N(C(=O)COC(=O)[C@@H]1CC(O)CN1S(=O)(=O)c1ccc(C(C)(C)C)cc1)C(C)C (stereo partly drawn) | inactive: 2.25% | – |
| Cc1ccc(-n2c(SCC(=O)Nc3cccc(S(=O)(=O)NC4=NCCCCC4)c3)nc3ccccc3c2=O)cc1 | inactive: 10.7% | – |
| Cc1nnc(SCC(=O)Nc2nonc2C)s1 | inactive: -4.23% | – |
| O=C(Nc1cccc2nsnc12)c1cccnc1Cl | inactive: 23.4% | – |
| Cc1c(CC(=O)NCC(=O)NCC(=O)O)c(=O)oc2cc3oc4c(c3cc12)CCCC4 | inactive: -1.45% | – |
| CN(CCC#N)C(=O)COC(=O)c1ccc2[nH]c3c(c2c1)CCCC3 | inactive: 1.31% | – |
| Cc1ccc(C(=O)CSc2nnc3c4ccccc4nc(C(C)(C)C)n23)cc1 | inactive: -0.469% | – |
| COC(c1ccccc1)c1nnc(CCC(=O)NC2CCCCC2)o1 (stereo not drawn) | inactive: 14.6% | – |
| O=C(O)CN(c1ccccc1)S(=O)(=O)c1cc(C(F)(F)F)cc(C(F)(F)F)c1 | inactive: -7.82% | – |
| COc1ccc(S(=O)(=O)N(C)CC(=O)NCCCn2ccnc2)cc1Cl | inactive: 11.6% | – |
| O=C1CC(N2CCN(c3cccc(C(F)(F)F)c3)CC2)C(=O)N1c1ccccc1F (stereo not drawn) | – | active: 15.8 µM |
| COc1ccc(CNC(=O)CCc2c[nH]c3ccccc23)cc1 | inactive: 11.6% | – |
| C=CCN(C(=O)c1ccccc1)C1CCS(=O)(=O)C1 (stereo not drawn) | inactive: -15% | – |
| COc1ccc(/C=C/C(=O)Nc2cc(=O)n(C)c(=O)n2C)cc1 | inactive: 20.1% | – |
| CCNC(=S)N(CCc1c(C)[nH]c2ccc(OC)cc12)Cc1cccnc1 | inactive: 11.5% | – |
| CO/N=C/C(=N\Nc1ccc(C)cc1)C(=O)c1ccc(OC)cc1 | inactive: 6.76% | – |

| Structure (SMILES) | growth rescue (activation) | Potency |
| --- | --- | --- |
| NC(=O)C1CCN(C(=O)CCC(=O)c2cccs2)CC1 | inactive: -16.9% | – |
| CC(NC(=O)C1CCC1)c1ccc(Br)cc1 (stereo not drawn) | inactive: 31.2% | – |
| CC(C)=CC(=O)Nc1c(C)cc(C)cc1Cl | inactive: -12.3% | – |
| CCn1c(=O)c(C(=O)NNC(=O)Cc2ccccc2)c(O)c2ccccc21 | inactive: -6.87% | – |
| Cc1nnc(SCC(=O)Nc2ccc3c(c2)OCO3)s1 | inactive: -19% | – |
| O=C(COC(=O)c1ccccc1O)Nc1ccc2ccccc2c1 | inactive: -0.401% | – |
| Cc1cccc(C(=O)NNC(=O)c2c(-c3ccccc3Cl)noc2C)c1O | inactive: 17.8% | – |
| COC(=O)CN1C(=O)c2cccc3cccc1c23 | inactive: 9.65% | – |
| Cc1nn(-c2ccccc2)c(C)c1C(=O)NCc1ccccc1F | inactive: 22.6% | – |
| CN(C)C(=O)CSc1nnc(Cc2ccc3c(c2)OCO3)o1 | inactive: -3.58% | – |
| O=S(=O)(Nc1nccs1)c1ccc(NS(=O)(=O)c2c(F)cc(F)c(Cl)c2F)cc1 | inactive: 5.51% | – |
| C/C(CC(C)C)=N\Oc1nc(C)cc(C)n1 | inactive: 31.5% | – |
| COc1cc(/C=N/NC(N)=O)ccc1OC(=O)c1ccco1 | inactive: 1.87% | – |
| CCOc1ccc(Cl)cc1-c1cc(C(=O)NCCc2ccncc2)[nH]n1 | inactive: 6.11% | – |
| COc1ccccc1OCc1ccc(C(=O)NC(C)c2ccccc2)o1 (stereo not drawn) | inactive: -10.7% | – |
| COc1cccc(CN2CCC(C(=O)N3CCN(c4ccccc4F)CC3)CC2)c1 | inactive: 2.98% | – |
| Cc1ccc(C)c(NC(=O)CN(C)C(=O)[C@@H](NC(N)=O)C(C)C)c1 | inactive: 2.15% | – |
| CCCNC(=O)COC(=O)c1c2c(nc3ccccc13)CCC2 | inactive: 6.18% | – |
| COc1cccc(NC(=S)N2CCCN(Cc3ccc(F)cc3)C2)c1 | inactive: -14.7% | – |
| Cc1ccn2c(CNCC3OCCc4ccccc43)c(C(=O)N3CCCCCC3)nc2c1 (stereo not drawn) | inactive: 6.55% | – |
| Cc1cc(C)c2c(c1)NC(C(=O)O)C1CC=CC21 (stereo not drawn) | inactive: -7.07% | – |
| Cc1noc(N)c1C1(O)C(=O)N(C(C)C)c2ccccc21 (stereo not drawn) | inactive: 3.13% | – |

| Structure (SMILES) | growth rescue (activation) | Potency |
| --- | --- | --- |
| O=C(COC(=O)c1cc[n+]([O-])cc1)Nc1ccc([N+](=O)[O-])cc1C(F)(F)F | inactive: 13.3% | – |
| Cc1ccc(C(=O)NCCNC(=O)COc2ccc(C)c(C)c2)cn1 | inactive: 0.327% | – |
| Cc1ccc(S(=O)(=O)Nc2ccccc2C(=O)N2CCCCC2C)c(C)c1NS(C)(=O)=O (stereo not drawn) | inactive: 0.194% | – |
| O=C(NCc1ccccc1)C(c1ccncc1)N(C(=O)c1csnn1)c1ccccc1F (stereo not drawn) | inactive: -4.18% | – |
| CC(=O)Nc1ccc(/C=C(\C#N)C(=O)NC2CCCCC2C)cc1 (stereo not drawn) | inactive: -7.89% | – |
| CCOc1ccc(-c2cc(C(=O)NCc3cc(C(F)(F)F)cc(C(F)(F)F)c3)[nH]n2)c(C)c1 | inactive: 1.29% | – |
| CCN(C(=O)c1ccc(Cl)cc1[N+](=O)[O-])c1ccccc1C | inactive: 13.9% | – |
| Nc1c(-c2cccc(Cl)c2)cnc2c(-c3ccccc3)cnn12 | inactive: 13.3% | – |
| COc1ccc(/C=C(\C#N)C(=O)NCCCn2ccnc2)cc1 | inactive: -6.51% | – |
| CC(=O)Nc1cccc(Oc2nc(C(F)(F)F)nc3ccccc23)c1 | inactive: -0.356% | – |
| CC(C)(C)NC(=O)C(c1ccncc1)N(CC1CCCO1)C(=O)Cn1nnc(-c2ccc(F)cc2)n1 (stereo not drawn) | inactive: -28.7% | – |
| CC(C)c1cc(C(=O)N2CCN(C(c3ccccc3)c3ccccc3)CC2)no1 | inactive: 13.6% | – |
| O=C(COc1ccccc1O)NCCN1CCOCC1 | inactive: -1.55% | – |
| CCCCC1N2CC3([N+](=O)[O-])CN1CC([N+](=O)[O-])(C2)C3(C)C (stereo not drawn) | inactive: -17.3% | – |
| N#CC1=C(O)C(c2ccccc2)n2c1nc(=O)c1ccccc12 (stereo not drawn) | inactive: 21.8% | – |
| COc1ccc(NC(=O)c2ccc(NC(=O)CN3CCC(C(N)=O)CC3)cc2)cc1 | inactive: 7.62% | – |
| Cc1ccc(NC(=O)COc2nsnc2N2CCOCC2)cc1Cl | inactive: 3.55% | – |
| CC(=O)C1=C(NC(=O)c2ccc(C(F)(F)F)cc2)C[C@@H]2[C@H]1C2(C)C | inactive: -6.45% | – |
| CCOC(=O)N1CCC(NC(=O)c2cc(-c3ccc(F)cc3)[nH]c2C)CC1 | inactive: -13.6% | – |
| CCn1nc(C)c(CNCc2cn[nH]c2-c2cc3ccccc3o2)c1C | inactive: 32.9% | – |
